# From paper PMC12820563
# The other results are listed elsewhere or left out. The list includes weakly bound sequences.
# Target: T1, MBP-FoxP3dN (UniProt Q99JB6)
# T1 sequence: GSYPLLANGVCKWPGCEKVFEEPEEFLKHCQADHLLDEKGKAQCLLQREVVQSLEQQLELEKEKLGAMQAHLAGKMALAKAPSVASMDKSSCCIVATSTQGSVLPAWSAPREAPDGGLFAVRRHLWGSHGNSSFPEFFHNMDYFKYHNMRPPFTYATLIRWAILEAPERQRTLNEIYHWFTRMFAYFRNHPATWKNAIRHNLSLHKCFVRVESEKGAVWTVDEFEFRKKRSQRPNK
# Experiment: PD-seq (MBP pull-down with sequencing)
# Conditions: 20 mM Tris-HCl pH 7.5, 100 mM NaCl, 1.5 mM MgCl2, 0.4 uM protein, 0.1 uM dsDNA library, 30 min, room temperature, amylose pull-down; high values mean tight binding; double strand, one strand shown
row,Sequence,binding signal (RPM ratio (pull-down/input))
1,GATGATTGTTCTCCCAGCTGATGAATTCATGGGATCGAGTAAACAAATTTTCCTAATCTTTCTGTTCAAGCGCCATCTAC,0.286
2,GATGATTGTTCTCCCAGCTGATGAATTGGATTCATCGAGTAAACAAATTTTCCTAATCTTTCTGTTCAAGCGCCATCTAC,0.418
3,GATGATTGTTCTCCCAGCTGATGAATTGTCACCATCGAGTAAACAAATTTTCCTAATCTTTCTGTTCAAGCGCCATCTAC,0.682
4,GATGATTGTTCTCCCAGCTGATGAATTGCAGATCTCGAGTAAACAAATTTTCCTAATCTTTCTGTTCAAGCGCCATCTAC,0.553
5,GATGATTGTTCTCCCAGCTGATGAATTAAGCTATTCGAGTAAACAAATTTTCCTAATCTTTCTGTTCAAGCGCCATCTAC,1.95
6,GATGATTGTTCTCCCAGCTGATGAATTGCTCACATCGAGTAAACAAATTTTCCTAATCTTTCTGTTCAAGCGCCATCTAC,0.686
7,GATGATTGTTCTCCCAGCTGATGAATTGGGCTTTTCGAGTAAACAAATTTTCCTAATCTTTCTGTTCAAGCGCCATCTAC,2.22
8,GATGATTGTTCTCCCAGCTGATGAATTCCGGCTTTCGAGTAAACAAATTTTCCTAATCTTTCTGTTCAAGCGCCATCTAC,0.891
9,GATGATTGTTCTCCCAGCTGATGAATTTCTGGGATCGAGTAAACAAATTTTCCTAATCTTTCTGTTCAAGCGCCATCTAC,0.212
10,GATGATTGTTCTCCCAGCTGATGAATTCCTTTATTCGAGTAAACAAATTTTCCTAATCTTTCTGTTCAAGCGCCATCTAC,0.445
11,GATGATTGTTCTCCCAGCTGATGAATTACTCGCTTCGAGTAAACAAATTTTCCTAATCTTTCTGTTCAAGCGCCATCTAC,0.366
12,GATGATTGTTCTCCCAGCTGATGAATTGAAACCGTCGAGTAAACAAATTTTCCTAATCTTTCTGTTCAAGCGCCATCTAC,0.248
13,GATGATTGTTCTCCCAGCTGATGAATTAAACTTATCGAGTAAACAAATTTTCCTAATCTTTCTGTTCAAGCGCCATCTAC,0.491
14,GATGATTGTTCTCCCAGCTGATGAATTTCCCGTTTCGAGTAAACAAATTTTCCTAATCTTTCTGTTCAAGCGCCATCTAC,0.25
15,GATGATTGTTCTCCCAGCTGATGAATTATGCTTGTCGAGTAAACAAATTTTCCTAATCTTTCTGTTCAAGCGCCATCTAC,4.71
16,GATGATTGTTCTCCCAGCTGATGAATTACGCAACTCGAGTAAACAAATTTTCCTAATCTTTCTGTTCAAGCGCCATCTAC,6.03

row,Sequence,binding signal (RPM ratio (pull-down/input))
1,GATGATTGTTCTCCCAGCTGATGAATTGGTAGCCTCGAGTAAACAAATTTTCCTAATCTTTCTGTTCAAGCGCCATCTAC,0.924
2,GATGATTGTTCTCCCAGCTGATGAATTAACTAAGTCGAGTAAACAAATTTTCCTAATCTTTCTGTTCAAGCGCCATCTAC,0.206
3,GATGATTGTTCTCCCAGCTGATGAATTATGAGACTCGAGTAAACAAATTTTCCTAATCTTTCTGTTCAAGCGCCATCTAC,0.829
4,GATGATTGTTCTCCCAGCTGATGAATTGCAGGGTTCGAGTAAACAAATTTTCCTAATCTTTCTGTTCAAGCGCCATCTAC,0.708
5,GATGATTGTTCTCCCAGCTGATGAATTTATGGAGTCGAGTAAACAAATTTTCCTAATCTTTCTGTTCAAGCGCCATCTAC,0.454
6,GATGATTGTTCTCCCAGCTGATGAATTAGGCAACTCGAGTAAACAAATTTTCCTAATCTTTCTGTTCAAGCGCCATCTAC,4.84
7,GATGATTGTTCTCCCAGCTGATGAATTCAATAGGTCGAGTAAACAAATTTTCCTAATCTTTCTGTTCAAGCGCCATCTAC,0.536
8,GATGATTGTTCTCCCAGCTGATGAATTCGTGGATTCGAGTAAACAAATTTTCCTAATCTTTCTGTTCAAGCGCCATCTAC,0.486
9,GATGATTGTTCTCCCAGCTGATGAATTGTGGCTGTCGAGTAAACAAATTTTCCTAATCTTTCTGTTCAAGCGCCATCTAC,1.13
10,GATGATTGTTCTCCCAGCTGATGAATTACAGAAGTCGAGTAAACAAATTTTCCTAATCTTTCTGTTCAAGCGCCATCTAC,0.212
11,GATGATTGTTCTCCCAGCTGATGAATTCTCTCAATCGAGTAAACAAATTTTCCTAATCTTTCTGTTCAAGCGCCATCTAC,0.226
12,GATGATTGTTCTCCCAGCTGATGAATTGCGGAGTTCGAGTAAACAAATTTTCCTAATCTTTCTGTTCAAGCGCCATCTAC,0.777
13,GATGATTGTTCTCCCAGCTGATGAATTGCGCATGTCGAGTAAACAAATTTTCCTAATCTTTCTGTTCAAGCGCCATCTAC,6.5
14,GATGATTGTTCTCCCAGCTGATGAATTTTACTTCTCGAGTAAACAAATTTTCCTAATCTTTCTGTTCAAGCGCCATCTAC,0.389
15,GATGATTGTTCTCCCAGCTGATGAATTAGATGCCTCGAGTAAACAAATTTTCCTAATCTTTCTGTTCAAGCGCCATCTAC,1.97
